Assay results: the domain aggregation screens of Martell et al. (2025)

Assay: soluble fraction after stress (log2 fold change); higher = more stays soluble; pooled small domains, quantitative proteomics
Details: stress: 50 degC
Method in brief: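 Custom libraries of small protein domains were pooled and measured in a high-throughput format, with quantitative proteomics as the read-out. Each library was stressed at 50°C. The value is the log2 fold change in the amount of each protein that stays soluble after stress, used as a measure of aggregation propensity; higher values mean more of the protein stays soluble.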

Sequence	soluble fraction (log2)
HMEETALAIGREVGYPVIIKAAGGGGGRGMRVVRNEAELAAAIALTKSEAGQFFKNDMVYMEKYL	0.143
HMEGHVLRSPMVGTFYASSAPDKPAFVSVGQQVKEGETLAIIEAMKMFNPIEADKSGTIVAILG	0.12
HMRRLQTIVYEKGLASTIKQARQMITHGHIFMNGHRVTVPGYLVTRAEESSIEFNPASPFTDEMHPM	-1.84
